This is one part of the list.
How the values were obtained:
Assay in all cases: glycan array binding signal (z-score within array); higher = stronger binding
Settings in all cases: glycan notation: IUPAC condensed, linker removed; mutation: N288D, K313I
[1] = molecular target: Fuc(a1-2)[Gal(a1-3)]Gal(b1-4)GlcNAc(b1-2)Man(a1-3)[Fuc(a1-2)[Gal(a1-3)]Gal(b1-4)GlcNAc(b1-2)Man(a1-6)]Man(b1-4)GlcNAc(b1-4)GlcNAc
Summary of the method: (§1)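 From the Consortium for Functional Glycomics database, 3228 arrays were curated, keeping only those whose protein sequence was available. Binding is given as a within-array Z-score averaged across arrays sharing a protein sequence and across linkers. Negative Z-scores can be read as non-binding.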

[2] = molecular target: Fuc(a1-2)[Gal(a1-3)]Gal(b1-4)GlcNAc(b1-2)Man(a1-3)[Fuc(a1-2)[Gal(a1-3)]Gal(b1-4)GlcNAc(b1-2)Man(a1-6)]Man(b1-4)GlcNAc(b1-4)[Fuc(a1-6)]GlcNAc
Summary of the method: as §1

[3] = molecular target: Fuc(a1-2)[Gal(a1-3)]Gal(b1-4)GlcNAc(b1-3)GalNAc
Summary of the method: as §1

[4] = molecular target: Fuc(a1-2)[Gal(a1-3)]Gal(b1-4)GlcNAc(b1-3)[Fuc(a1-2)[Gal(a1-3)]Gal(b1-4)GlcNAc(b1-6)]GalNAc
Summary of the method: as §1

[5] = molecular target: Fuc(a1-2)[Gal(a1-3)]Gal(b1-4)GlcNAc(b1-6)GalNAc
Summary of the method: as §1

[6] = molecular target: Fuc(a1-2)[Gal(a1-3)]Gal(b1-4)[Fuc(a1-3)]Glc
Summary of the method: as §1

[7] = molecular target: Fuc(a1-2)[Gal(a1-3)]Gal(b1-4)[Fuc(a1-3)]GlcNAc
Summary of the method: as §1

[8] = molecular target: Fuc(a1-2)[Gal(a1-3)]Gal(b1-4)[Fuc(a1-3)]GlcNAc(b1-3)GalNAc
Summary of the method: as §1

[9] = molecular target: Fuc(a1-2)[Gal(a1-4)]Gal(b1-4)GlcNAc
Summary of the method: as §1

[10] = molecular target: Fuc(a1-2)[GalNAc(a1-3)]Gal
Summary of the method: as §1

[11] = molecular target: Fuc(a1-2)[GalNAc(a1-3)]Gal(b1-3)GalNAc(a1-3)[Fuc(a1-2)]Gal(b1-4)GlcNAc
Summary of the method: as §1

[12] = molecular target: Fuc(a1-2)[GalNAc(a1-3)]Gal(b1-3)GalNAc(b1-3)Gal(a1-4)Gal(b1-4)Glc
Summary of the method: as §1

[13] = molecular target: Fuc(a1-2)[GalNAc(a1-3)]Gal(b1-3)GlcNAc
Summary of the method: as §1

[14] = molecular target: Fuc(a1-2)[GalNAc(a1-3)]Gal(b1-3)GlcNAc(b1-2)Man(a1-3)[Fuc(a1-2)[GalNAc(a1-3)]Gal(b1-3)GlcNAc(b1-2)Man(a1-6)]Man(b1-4)GlcNAc(b1-4)GlcNAc
Summary of the method: as §1

[15] = molecular target: Fuc(a1-2)[GalNAc(a1-3)]Gal(b1-3)GlcNAc(b1-2)Man(a1-3)[Fuc(a1-2)[GalNAc(a1-3)]Gal(b1-3)GlcNAc(b1-2)Man(a1-6)]Man(b1-4)GlcNAc(b1-4)[Fuc(a1-6)]GlcNAc
Summary of the method: as §1

[16] = molecular target: Fuc(a1-2)[GalNAc(a1-3)]Gal(b1-3)GlcNAc(b1-3)GalNAc
Summary of the method: as §1

[17] = molecular target: Fuc(a1-2)[GalNAc(a1-3)]Gal(b1-3)GlcNAc(b1-6)GalNAc
Summary of the method: as §1

[18] = molecular target: Fuc(a1-2)[GalNAc(a1-3)]Gal(b1-4)Glc
Summary of the method: as §1

[19] = molecular target: Fuc(a1-2)[GalNAc(a1-3)]Gal(b1-4)GlcNAc
Summary of the method: as §1

[20] = molecular target: Fuc(a1-2)[GalNAc(a1-3)]Gal(b1-4)GlcNAc(b1-2)Man
Summary of the method: as §1

[21] = molecular target: Fuc(a1-2)[GalNAc(a1-3)]Gal(b1-4)GlcNAc(b1-2)Man(a1-3)[Fuc(a1-2)[GalNAc(a1-3)]Gal(b1-4)GlcNAc(b1-2)Man(a1-6)]Man(b1-4)GlcNAc(b1-4)GlcNAc
Summary of the method: as §1

[22] = molecular target: Fuc(a1-2)[GalNAc(a1-3)]Gal(b1-4)GlcNAc(b1-2)Man(a1-3)[Fuc(a1-2)[GalNAc(a1-3)]Gal(b1-4)GlcNAc(b1-2)Man(a1-6)]Man(b1-4)GlcNAc(b1-4)[Fuc(a1-6)]GlcNAc
Summary of the method: as §1

[23] = molecular target: Fuc(a1-2)[GalNAc(a1-3)]Gal(b1-4)GlcNAc(b1-3)Gal(b1-4)GlcNAc
Summary of the method: as §1

[24] = molecular target: Fuc(a1-2)[GalNAc(a1-3)]Gal(b1-4)GlcNAc(b1-3)Gal(b1-4)GlcNAc(b1-3)Gal(b1-4)GlcNAc
Summary of the method: as §1

[25] = molecular target: Fuc(a1-2)[GalNAc(a1-3)]Gal(b1-4)GlcNAc(b1-3)GalNAc
Summary of the method: as §1

[26] = molecular target: Fuc(a1-2)[GalNAc(a1-3)]Gal(b1-4)GlcNAc(b1-3)[Fuc(a1-2)[GalNAc(a1-3)]Gal(b1-4)GlcNAc(b1-6)]GalNAc
Summary of the method: as §1

[27] = molecular target: Fuc(a1-2)[GalNAc(a1-3)]Gal(b1-4)GlcNAc(b1-6)GalNAc
Summary of the method: as §1

[28] = molecular target: Fuc(a1-2)[GalNAc(a1-3)]Gal(b1-4)[Fuc(a1-3)]GlcNAc
Summary of the method: as §1

[29] = molecular target: Fuc(a1-2)[GalNAc(a1-3)]Gal(b1-4)[Fuc(a1-3)]GlcNAc(b1-3)GalNAc
Summary of the method: as §1

[30] = molecular target: Fuc(a1-2)[GalNAc(a1-4)]Gal(b1-4)GlcNAc
Summary of the method: as §1

[31] = molecular target: Fuc(a1-2)[GalNAc(b1-3)]Gal
Summary of the method: as §1

Fuc(a1-3)GlcNAc = molecular target: Fuc(a1-3)GlcNAc
Summary of the method: as §1

[32] = molecular target: Fuc(a1-3)[Gal(b1-4)]Glc6S
Summary of the method: as §1

[33] = molecular target: Fuc(a1-3)[Gal(b1-4)]GlcNAc
Summary of the method: as §1

[34] = molecular target: Fuc(a1-3)[Gal(b1-4)]GlcNAc(b1-2)Man
Summary of the method: as §1

[35] = molecular target: Fuc(a1-3)[Gal(b1-4)]GlcNAc(b1-2)Man(a1-3)[Fuc(a1-3)[Gal(b1-4)]GlcNAc(b1-2)Man(a1-6)]Man(b1-4)GlcNAc(b1-4)GlcNAc
Summary of the method: as §1

[36] = molecular target: Fuc(a1-3)[Gal(b1-4)]GlcNAc(b1-2)Man(a1-3)[Fuc(a1-3)[Gal(b1-4)]GlcNAc(b1-2)Man(a1-6)]Man(b1-4)GlcNAc(b1-4)[Fuc(a1-6)]GlcNAc
Summary of the method: as §1

[37] = molecular target: Fuc(a1-3)[Gal(b1-4)]GlcNAc(b1-3)Gal(b1-3)[Fuc(a1-4)]GlcNAc
Summary of the method: as §1

[38] = molecular target: Fuc(a1-3)[Gal(b1-4)]GlcNAc(b1-3)Gal(b1-4)[Fuc(a1-3)]GlcNAc
Summary of the method: as §1

[39] = molecular target: Fuc(a1-3)[Gal(b1-4)]GlcNAc(b1-3)Gal(b1-4)[Fuc(a1-3)]GlcNAc(b1-3)Gal(b1-4)[Fuc(a1-3)]GlcNAc
Summary of the method: as §1

[40] = molecular target: Fuc(a1-3)[Gal(b1-4)]GlcNAc(b1-3)GalNAc
Summary of the method: as §1

[41] = molecular target: Fuc(a1-3)[Gal(b1-4)]GlcNAc(b1-6)GalNAc
Summary of the method: as §1

[42] = molecular target: Fuc(a1-3)[Gal(b1-4)]GlcNAc(b1-6)[Gal(b1-3)GlcNAc(b1-3)]Gal(b1-4)Glc
Summary of the method: as §1

[43] = molecular target: Fuc(a1-3)[Gal(b1-4)]GlcNAc6S
Summary of the method: as §1

[44] = molecular target: Fuc(a1-3)[Gal3S(b1-4)]Glc
Summary of the method: as §1

B1: Langerin (Homo sapiens), Q9UJ71 (protein)
chain: STLNAQIPELKSDLEKASALNTKIRALQGSLENMSKLLKRQNDILQVVSQGWKYFKGNFYYFSLIPKTWYSAEQFCVSRNSHLTSVTSESEQEFLYKTAGGLIYWIGLTKAGMEGDWSWVDDTPFNKVQSARFWIPGEPNDAGNNEHCGNIKAPSLQAWNDAPCDITFLFICKRPYVPSEP
[1]
  glycan array binding signal (z-score): -0.167
[2]
  glycan array binding signal (z-score): 0.285
[3]
  glycan array binding signal (z-score): -0.034
[4]
  glycan array binding signal (z-score): -0.12
[5]
  glycan array binding signal (z-score): -0.17
[6]
  glycan array binding signal (z-score): -0.106
[7]
  glycan array binding signal (z-score): -0.073
[8]
  glycan array binding signal (z-score): -0.028
[9]
  glycan array binding signal (z-score): -0.02
[10]
  glycan array binding signal (z-score): 0.334
[11]
  glycan array binding signal (z-score): -0.188
[12]
  glycan array binding signal (z-score): -0.197
[13]
  glycan array binding signal (z-score): -0.137
[14]
  glycan array binding signal (z-score): -0.253
[15]
  glycan array binding signal (z-score): 0.337
[16]
  glycan array binding signal (z-score): 0.093
[17]
  glycan array binding signal (z-score): 0.089
[18]
  glycan array binding signal (z-score): -0.304
[19]
  glycan array binding signal (z-score): -0.27
[20]
  glycan array binding signal (z-score): -0.249
[21]
  glycan array binding signal (z-score): -0.017
[22]
  glycan array binding signal (z-score): 0.04
[23]
  glycan array binding signal (z-score): -0.202
[24]
  glycan array binding signal (z-score): -0.095
[25]
  glycan array binding signal (z-score): -0.041
[26]
  glycan array binding signal (z-score): 0.02
[27]
  glycan array binding signal (z-score): -0.206
[28]
  glycan array binding signal (z-score): 0.025
[29]
  glycan array binding signal (z-score): 1.92
[30]
  glycan array binding signal (z-score): -0.285
[31]
  glycan array binding signal (z-score): -0.241
Fuc(a1-3)GlcNAc
  glycan array binding signal (z-score): -0.206
[32]
  glycan array binding signal (z-score): -0.092
[33]
  glycan array binding signal (z-score): -0.213
[34]
  glycan array binding signal (z-score): -0.201
[35]
  glycan array binding signal (z-score): -0.174
[36]
  glycan array binding signal (z-score): -0.106
[37]
  glycan array binding signal (z-score): -0.035
[38]
  glycan array binding signal (z-score): -0.124
[39]
  glycan array binding signal (z-score): -0.239
[40]
  glycan array binding signal (z-score): -0.063
[41]
  glycan array binding signal (z-score): 0.022
[42]
  glycan array binding signal (z-score): -0.363
[43]
  glycan array binding signal (z-score): -0.2
[44]
  glycan array binding signal (z-score): 0.014

Reference: the supplement of paper PMC8728848
